The other results are listed elsewhere or left out. At the low end of the ranking, values are background and their order means little. The protein was read in a cell extract, so binding may be indirect.

In this assay the target is T1, HNF4alpha8 (COS-7 nuclear extract) (UniProt P41235-5).
T1 sequence: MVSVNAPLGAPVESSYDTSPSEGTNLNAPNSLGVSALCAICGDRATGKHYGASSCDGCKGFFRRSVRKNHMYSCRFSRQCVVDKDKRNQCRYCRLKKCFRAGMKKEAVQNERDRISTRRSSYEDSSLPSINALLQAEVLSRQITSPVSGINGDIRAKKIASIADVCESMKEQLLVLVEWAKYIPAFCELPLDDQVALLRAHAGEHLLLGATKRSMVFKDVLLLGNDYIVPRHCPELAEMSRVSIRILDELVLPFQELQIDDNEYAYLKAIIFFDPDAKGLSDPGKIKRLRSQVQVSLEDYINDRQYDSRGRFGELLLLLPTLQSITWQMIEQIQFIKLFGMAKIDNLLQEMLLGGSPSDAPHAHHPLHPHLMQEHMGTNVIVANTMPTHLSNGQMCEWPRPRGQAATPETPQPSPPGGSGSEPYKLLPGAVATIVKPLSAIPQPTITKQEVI
The assay is described as follows: protein-binding microarray. The note with it: COS-7 nuclear extract on double-stranded Agilent 4x180k PBM; binding buffer, salt, pH and temperature not given; high values mean tight binding; double strand, one strand shown; sequences stand for … in …GCCTAGGGAGATTAGAGTATCGGTCGA
As to GCAAGACTGCATTCCCTAGATGTCGCAGTA, the binding signal (log2 normalized intensity) was -1.3.
As for GGTCAGAGTAAAGCTCCAGTCTCCTCCCTG, the figure is -1.18.
Turning to AGGAAATCAAAAACCATTTGACAATTTACA, the binding signal (log2 normalized intensity) was -1.22.
On to GAGACATGTGGCCTTTGGTACAGGGCCCAG, for which the binding signal (log2 normalized intensity) turned out to be 2.06.
Consider CACCAGATAGCAAGGAGACATCGCTCCTCC, for which the binding signal (log2 normalized intensity) is -1.32.
Next, AATCATGGGCCCACAGATGATCAAAGGTCA: 7.91; CTCCAGGGAGAAACCTGCCAGGTGGACCAA: 1.8; AAGATATTATCTCTGTCTGTCAAGGCTTTT: 0.523.
As for GAAGATTTGCGGCCATCTAGCTACAGGAGA, the figure is -1.27.
With AGGTCGGTGGTATGTGTGTGCTTTAACAAG, the binding signal (log2 normalized intensity) was 2.04.
Next, GGCGGGGTTTTCGGTTTTCAAATGAACCCG: 3.66; TTCTTGCTCTTTACCCCTGCAAGGATTGAT: 2.1.
As for AGTAAATCTCACATTCGTTAACATCAGCTG, the figure is -1.1.
Next, AGAAATCCACACAGCACTGACCTTTGAGAG: 5.79.
Consider ATATTGACTGCCCCAACGCCTCCTTTCATC, for which the binding signal (log2 normalized intensity) amounted to 2.71.
As for AGTAAAGGTCGTTCTATCGGAGAACGTTCC, the figure is 0.621; as for TCATCAGTGCCATTCATTAGTCCTGGTTTT, 0.795; as for GGAAAGGGAACTCCCTGACCCCTAGCACTT, 4.05.
On to TTAGAAGGCTCCCTGCTGCGGAGAGTTCCC, for which the binding signal (log2 normalized intensity) was -1.26.
Turning to AGAATTTAAACCAAACAGAACAAAGTCCAG, the binding signal (log2 normalized intensity) amounted to 4.03.
As for CAGAGTAACCATGGGGGCTCAGGGCCTCTC, the figure is -1.28; as for ATTTCTGTGGACTGCTCCAGTGGACATTGG, 3.51.
Next, TGATAAGCAAGATGACTTTGGTCTAGACAC: 1.28; ACTGTCCCAGCTGAGATTCAGAATAGTTAA: -1.5; TTCAAAGGAGTGTCTTTCTCCTTGAACACA: 1.22.
In the case of AATGCAGCAGCATTGGACCCTCCCAGCCAA, the binding signal (log2 normalized intensity) turned out to be 4.33.
Regarding GAAAAAGCTGACGCCCCACCCCCTCCACCC, the binding signal (log2 normalized intensity) came out at 6.5.
Take TGAAATCTACAGGACAGCCAGGCAGTCGGG: the binding signal (log2 normalized intensity) was -1.27.
Take GCCTGCGGGGTCAGGCCGTGGTGTATGATG: the binding signal (log2 normalized intensity) came out at 1.86.
On to CTGCCTTGGAGGCACTCCCAGGATAATGGA, for which the binding signal (log2 normalized intensity) was -1.41.
Take TTTGTTTTTACAGACAGGCATGACAGAGTG: the binding signal (log2 normalized intensity) turned out to be 1.13.
As to GCTGGACTTTCATCTGAGTCTCAGCAATTA, the binding signal (log2 normalized intensity) is 1.15.
Take TGAGCTGTGGTTAAGACTCAAAGTTCAGTC: the binding signal (log2 normalized intensity) turned out to be 3.85.
Regarding GGAGCTGAAACTATAAACTTGGTTACAGGA, the binding signal (log2 normalized intensity) is -1.37.
For CTAATGGTACCATCTGCCACTCATAGAACT, the binding signal (log2 normalized intensity) is -1.3.
As for GTCTGCACTCCAGGAAAGACGAGTGCGCTT, the figure is -1.3; as for AAATTCCTAGCCCTCTTTCAAAGACAAATA, -0.964; as for CATTGCCCCCTATGTAAAGGCCTTTGAAGC, 3.55.
Next, AGTAATCAATGGTTGCACTCTGGTGCCCTC: 2.89; GCGTGGCCCAGCATGCCCCGCGCCGCGTCC: 0.93.
As for AGAGAGTTCTATGGGATGACCTTTGAGCAA, the figure is 7.89.
Regarding GGCAGATATGAAAGAGCCATGGACTGCTGA, the binding signal (log2 normalized intensity) was -0.289.
As for TGAGAAGGGCTAATATTTGCAAATGACTTT, the figure is 0.24; as for CCCACTAGGCCAGCCCGAGCGCGTCTGCCA, -1.37; as for TTTAATGTATAAACCCTGAGGGTCAACACA, 2.27.
GGATGCCAAATTCCTCCCACTCTGACATCC: the binding signal (log2 normalized intensity) is -0.765.
As to GCCCTCCTAGCAAACAATGAGGACGTGTGT, the binding signal (log2 normalized intensity) came to 0.528.
As for AGTGCTGTTTGCAAGGATTAAGTGAGATCA, the figure is 1.27.
In the case of AAGAGCAAACAATCAGTGAAATGCCAGTGG, the binding signal (log2 normalized intensity) was -1.29.
Next, AGAGTAGCTCCAAAAGGTGGACAAGACTGG: -1.4.
CCCCATGATGATAGCAAACACGATTGGATG: the binding signal (log2 normalized intensity) stood at 0.195.
Next, GGCAGGACAGCAGGAGTGGGAGAAAGCTTT: -1.37; AACAAACGACGCTCCTATCATCCCTATCAC: -1.29; TTCCAGAAATCTGACCTCTGCCTCGGCCAC: 3.19.
With TCTTAGGACCACATGAGTAAACAAGCTCTT, the binding signal (log2 normalized intensity) is -1.3.
Next, CAGCAACACTCTACTACTTGACCTTTGAAA: 6.62.
As for GCTTTTCCATTGACAGTCCAAGGACTCAAT, the figure is -0.931; as for AAGAGATAGCGAGAAGGCAGGTAGAAGAAG, -1.27; as for GCTAAGATTGGACTCTGCACTCCAGCCTGG, 5.62.
Next, TCAGACCACCAGCTGCTTCGGCCAGCACAG: -1.38.
Take AGAGATCAAAGGTGAGTGGGGAAAGAGCCC: the binding signal (log2 normalized intensity) is 2.45.
For the sequence CAGGGGTAAGTTTCTAACTACCATGAATTC, the binding signal (log2 normalized intensity) was found to be 0.259.
Next, ATCTTTCTGTCTCATTCCCTGACAGACCCC: 3.87; ACTGCGGACATAGCTTGCCACAGCATGTTA: -1.35.
Next, GATTTACATTGAGTTAACTATTGAGACTTT: 2.42; ATCAACTTTCAGAAGGGGACAAGCACATTA: -1.28.
As for TACAAGGTCCATAAAACCAGTCAGGCAAAC, the figure is -1.21; as for AAGGGAGAAAGACATGTTTCTAACTGCCCG, 0.0984; as for TCTGGGGTCCTCTGCTGCCCTCTAGGGTTG, 1.99.
As for GCAGAAATCAACTGCCCTCTGCCTTTCAGG, the binding signal (log2 normalized intensity) turned out to be 0.0509.
On to CTCTCTGAAATGAAGGTCAGCAAATTTGTT, for which the binding signal (log2 normalized intensity) was determined as 1.42.
Next, CTTCGTCCTGAGCAGTCCCTTCCCCCCTCC: 5.7; GCAGAAACCATCTGGCTTGGCCCCCGGACC: 3.7.

For the origin of these results see article PMC10726135.
